In the GPR68 mutational scans of Howard et al. (2025):
Scores with a large standard error are left out. Not listed are two conditions whose scores span a narrow range. Read del as a deletion of the residues named and ins as an insertion between two positions. For some of these results: How much ogerin was present is not stated here.

B1: GPR68, Q15743 (parent)
chain: MGNITADNSSMSCTIDHTIHQTLAPVVYVTVLVVGFPANCLSLYFGYLQIKARNELGVYLCNLTVADLFYICSLPFWLQYVLQHDNWSHGDLSCQVCGILLYENIYISVGFLCCISVDRYLAVAHPFRFHQFRTLKAAVGVSVVIWAKELLTSIYFLMHEEVIEDENQHRVCFEHYPIQAWQRAINYYRFLVGFLFPICLLLASYQGILRAVRRSHGTQKSRKDQIQRLVLSTVVIFLACFLPYHVLLLVRSVWEASCDFAKGVFNAYHFSLLLTSFNCVADPVLYCFVSETTHRDLARLRGACLAFLTCSRTGRAREAYPLGAPEASGKSGAQGEEPELLTKLHPAFQTPNSPGSGGFPTGRLA

Experiments:
[1] = variants of: B1; assay: cAMP reporter score (Enrich2 score, wild type = 0); higher = more signal; HEK293T, FACS bins
[2] = variants of: B1; assay: surface expression score (Enrich2 score, wild type = 0); higher = more signal; HEK293T, FACS bins

| Variant | cAMP reporter score ([1]; pH 5.5) | cAMP reporter score ([1]; pH 6) | cAMP reporter score ([1]; pH 6, modulator: ogerin) | cAMP reporter score ([1]; pH 6.5, modulator: ogerin) | surface expression score [2] |
| --- | --- | --- | --- | --- | --- |
| MGNITADNSSMSCTIDHTIHQTLAPVVYVTVLVVGFPANCLSLYFGYLQIKARNELGVYLCNLTVADLFYICSLPFWLQYVLQHDNWSHGDLSCQVCGILLYEEIYISVGFLCCISVDRYLAVAHPFRFHQFRTLKAAVGVSVVIWAKELLTSIYFLMHEEVIEDENQHRVCFEHYPIQAWQRAINYYRFLVGFLFPICLLLASYQGILRAVRRSHGTQKSRKDQIQRLVLSTVVIFLACFLPYHVLLLVRSVWEASCDFAKGVFNAYHFSLLLTSFNCVADPVLYCFVSETTHRDLARLRGACLAFLTCSRTGRAREAYPLGAPEASGKSGAQGEEPELLTKLHPAFQTPNSPGSGGFPTGRLA [N104E] | 0.646 | 5.14 | 0.735 | 2.17 | -1.33 |
| MGNITADNSSMSCTIDHTIHQTLAPVVYVTVLVVGFPANCLSLYFGYLQIKARNELGVYLCNLTVADLFYICSLPFWLQYVLQHDNWSHGDLSCQVCGILLYEGIYISVGFLCCISVDRYLAVAHPFRFHQFRTLKAAVGVSVVIWAKELLTSIYFLMHEEVIEDENQHRVCFEHYPIQAWQRAINYYRFLVGFLFPICLLLASYQGILRAVRRSHGTQKSRKDQIQRLVLSTVVIFLACFLPYHVLLLVRSVWEASCDFAKGVFNAYHFSLLLTSFNCVADPVLYCFVSETTHRDLARLRGACLAFLTCSRTGRAREAYPLGAPEASGKSGAQGEEPELLTKLHPAFQTPNSPGSGGFPTGRLA [N104G] | -0.485 |  |  |  |  |
| MGNITADNSSMSCTIDHTIHQTLAPVVYVTVLVVGFPANCLSLYFGYLQIKARNELGVYLCNLTVADLFYICSLPFWLQYVLQHDNWSHGDLSCQVCGILLYEHIYISVGFLCCISVDRYLAVAHPFRFHQFRTLKAAVGVSVVIWAKELLTSIYFLMHEEVIEDENQHRVCFEHYPIQAWQRAINYYRFLVGFLFPICLLLASYQGILRAVRRSHGTQKSRKDQIQRLVLSTVVIFLACFLPYHVLLLVRSVWEASCDFAKGVFNAYHFSLLLTSFNCVADPVLYCFVSETTHRDLARLRGACLAFLTCSRTGRAREAYPLGAPEASGKSGAQGEEPELLTKLHPAFQTPNSPGSGGFPTGRLA [N104H] | 0.192 | 1.34 |  | -0.082 | 2.18 |
